# This is one part of the list.
# B1: Sebin1 (Coprinopsis cinerea), A8PEE3 (protein)
# chain: MTSPFYAHIHNVQDDNTWRFTLIFANRATADEWWRAISEAPANTSIAKSITRVTPQYYTHDVNIWNIWNFFADGNIKSISERFRGRLFIVLENDRGGRGITVIPPVPIVDHVSGNWFYIRSKTAPHLFWYYDERRSSIYASKEKRTRFKISIRNPSSQTPKNAIMINTDDVTIHIKENLYVGVDNNLGHIIPTRAYRTFKFGELESGAIAGFDVVENIEERCSSTFDGASLSISGPDSSSPGEPWELV
# Experiments:
# Assay in all cases: glycan array binding signal (z-score within array); higher = stronger binding
# Conditions in all cases: glycan notation: IUPAC condensed, linker removed
# [1] = target: GlcNAc(b1-3)Gal(b1-4)GlcNAc(b1-3)Gal(b1-4)GlcNAc(b1-3)Gal(b1-4)GlcNAc(b1-3)Gal(b1-4)GlcNAc(b1-2)[GlcNAc(b1-3)Gal(b1-4)GlcNAc(b1-3)Gal(b1-4)GlcNAc(b1-3)Gal(b1-4)GlcNAc(b1-3)Gal(b1-4)GlcNAc(b1-6)]Man(a1-6)[GlcNAc(b1-3)Gal(b1-4)GlcNAc(b1-3)Gal(b1-4)GlcNAc(b1-3)Gal(b1-4)GlcNAc(b1-3)Gal(b1-4)GlcNAc(b1-2)Man(a1-3)]Man(b1-4)GlcNAc(b1-4)[Fuc(a1-6)]GlcNAc
# How it was run: (§1)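 The binding signal is a Z-score computed within each array. Data were drawn from 3228 arrays in the Consortium for Functional Glycomics database, restricted to those with a known protein sequence. Scores were averaged over arrays of the same protein sequence at different concentrations or buffers, and over linkers, and negative values can be taken as non-binding.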
# [2] = target: GlcNAc(b1-3)Gal(b1-4)GlcNAc(b1-3)Gal(b1-4)GlcNAc(b1-3)GalNAc
# How it was run: as §1
# [3] = target: GlcNAc(b1-3)Gal(b1-4)GlcNAc(b1-3)GalNAc
# How it was run: as §1
# [4] = target: GlcNAc(b1-3)Gal(b1-4)GlcNAc(b1-3)[GlcNAc(b1-3)Gal(b1-4)GlcNAc(b1-3)]GalNAc
# How it was run: as §1
# [5] = target: GlcNAc(b1-3)Gal(b1-4)GlcNAc(b1-6)[Gal(b1-3)]GalNAc
# How it was run: as §1
# [6] = target: GlcNAc(b1-3)Gal(b1-4)GlcNAc(b1-6)[GlcNAc(b1-3)Gal(b1-3)]GalNAc
# How it was run: as §1
# [7] = target: GlcNAc(b1-3)Gal(b1-4)GlcNAc(b1-6)[GlcNAc(b1-3)]Gal(b1-4)GlcNAc
# How it was run: as §1
# [8] = target: GlcNAc(b1-3)GalNAc
# How it was run: as §1
# [9] = target: GlcNAc(b1-3)Man
# How it was run: as §1
# [10] = target: GlcNAc(b1-3)[GlcNAc(b1-4)][GlcNAc(b1-6)]GlcNAc
# How it was run: as §1
# [11] = target: GlcNAc(b1-3)[GlcNAc(b1-6)]Gal(b1-4)GlcNAc
# How it was run: as §1
# [12] = target: GlcNAc(b1-3)[GlcNAc(b1-6)]GalNAc
# How it was run: as §1
# [13] = target: GlcNAc(b1-4)Gal(b1-4)GlcNAc
# How it was run: as §1
# [14] = target: GlcNAc(b1-4)GlcNAc
# How it was run: as §1
# [15] = target: GlcNAc(b1-4)GlcNAc(b1-4)GlcNAc
# How it was run: as §1
# [16] = target: GlcNAc(b1-4)GlcNAc(b1-4)GlcNAc(b1-4)GlcNAc(b1-4)GlcNAc
# How it was run: as §1
# [17] = target: GlcNAc(b1-4)GlcNAc(b1-4)GlcNAc(b1-4)GlcNAc(b1-4)GlcNAc(b1-4)GlcNAc
# How it was run: as §1
# [18] = target: GlcNAc(b1-4)[GlcNAc(b1-6)]GalNAc
# How it was run: as §1
# [19] = target: GlcNAc(b1-6)Gal(b1-4)GlcNAc
# How it was run: as §1
# [20] = target: GlcNAc(b1-6)GalNAc
# How it was run: as §1
# [21] = target: GlcNAc6S(b1-3)Gal(b1-4)GlcNAc
# How it was run: as §1
# [22] = target: Kdn(a2-3)Gal(b1-3)GalNAc
# How it was run: as §1
# [23] = target: Kdn(a2-3)Gal(b1-3)GlcNAc
# How it was run: as §1
# [24] = target: Kdn(a2-3)Gal(b1-4)Glc
# How it was run: as §1
# [25] = target: Kdn(a2-3)Gal(b1-4)GlcNAc
# How it was run: as §1
# [26] = target: Kdn(a2-3)Gal(b1-4)[Fuc(a1-3)]GlcNAc
# How it was run: as §1
# [27] = target: Kdn(a2-6)Gal(b1-4)GlcNAc
# How it was run: as §1
# [28] = target: Man(a1-2)Man(a1-2)Man(a1-3)Man
# How it was run: as §1
# [29] = target: Man(a1-2)Man(a1-2)Man(a1-6)[Man(a1-3)]Man
# How it was run: as §1
# [30] = target: Man(a1-2)Man(a1-3)Man
# How it was run: as §1
# [31] = target: Man(a1-2)Man(a1-3)[Man(a1-2)Man(a1-6)]Man
# How it was run: as §1
# [32] = target: Man(a1-2)Man(a1-3)[Man(a1-2)Man(a1-6)]Man(a1-6)[Man(a1-2)Man(a1-2)Man(a1-3)]Man
# How it was run: as §1
# [33] = target: Man(a1-2)Man(a1-3)[Man(a1-2)Man(a1-6)]Man(a1-6)[Man(a1-2)Man(a1-2)Man(a1-3)]Man(b1-4)GlcNAc(b1-4)GlcNAc
# How it was run: as §1
# [34] = target: Man(a1-2)Man(a1-3)[Man(a1-6)]Man(a1-6)[Man(a1-2)Man(a1-3)]Man(b1-4)GlcNAc(b1-4)GlcNAc
# How it was run: as §1
# [35] = target: Man(a1-2)Man(a1-6)[Man(a1-3)]Man(a1-6)[Man(a1-2)Man(a1-2)Man(a1-3)]Man
# How it was run: as §1
# [36] = target: Man(a1-2)Man(a1-6)[Man(a1-3)]Man(a1-6)[Man(a1-2)Man(a1-2)Man(a1-3)]Man(b1-4)GlcNAc(b1-4)GlcNAc
# How it was run: as §1
# [37] = target: Man(a1-3)[Man(a1-6)]Man
# How it was run: as §1
binder,measurement,setting,value
B1,glycan array binding signal (z-score),[1],-0.62
same,glycan array binding signal (z-score),[2],-0.391
same,glycan array binding signal (z-score),[3],-0.74
same,glycan array binding signal (z-score),[4],-0.696
same,glycan array binding signal (z-score),[5],-0.195
same,glycan array binding signal (z-score),[6],-0.552
same,glycan array binding signal (z-score),[7],-0.671
same,glycan array binding signal (z-score),[8],-0.499
same,glycan array binding signal (z-score),[9],-0.627
same,glycan array binding signal (z-score),[10],-0.592
same,glycan array binding signal (z-score),[11],-0.591
same,glycan array binding signal (z-score),[12],-0.319
same,glycan array binding signal (z-score),[13],-0.126
same,glycan array binding signal (z-score),[14],-0.473
same,glycan array binding signal (z-score),[15],-0.27
same,glycan array binding signal (z-score),[16],-0.511
same,glycan array binding signal (z-score),[17],-0.27
same,glycan array binding signal (z-score),[18],-0.714
same,glycan array binding signal (z-score),[19],-0.379
same,glycan array binding signal (z-score),[20],0.715
same,glycan array binding signal (z-score),[21],-0.801
same,glycan array binding signal (z-score),[22],-0.271
same,glycan array binding signal (z-score),[23],-0.434
same,glycan array binding signal (z-score),[24],0.514
same,glycan array binding signal (z-score),[25],-0.558
same,glycan array binding signal (z-score),[26],1.4
same,glycan array binding signal (z-score),[27],-0.282
same,glycan array binding signal (z-score),[28],-0.328
same,glycan array binding signal (z-score),[29],-0.075
same,glycan array binding signal (z-score),[30],-0.17
same,glycan array binding signal (z-score),[31],-0.36
same,glycan array binding signal (z-score),[32],-0.458
same,glycan array binding signal (z-score),[33],-0.238
same,glycan array binding signal (z-score),[34],-0.418
same,glycan array binding signal (z-score),[35],-0.2
same,glycan array binding signal (z-score),[36],1
same,glycan array binding signal (z-score),[37],-0.525

# — the supplement of paper PMC8728848
